Out of some 310,000 compounds screened, about 2,200 (0.71%) showed an effect of 50% or more. Effects have a minus sign here. The list shows a part of the results.
The compounds below were run against human ether-à-go-go-related gene (hERG) potassium channel (human, UniProt Q12809) (assay: primary screen, population patch clamp on CHO cells stably expressing hERG).
Chain of human ether-à-go-go-related gene (hERG) potassium channel (Q12809 whole entry, looked up): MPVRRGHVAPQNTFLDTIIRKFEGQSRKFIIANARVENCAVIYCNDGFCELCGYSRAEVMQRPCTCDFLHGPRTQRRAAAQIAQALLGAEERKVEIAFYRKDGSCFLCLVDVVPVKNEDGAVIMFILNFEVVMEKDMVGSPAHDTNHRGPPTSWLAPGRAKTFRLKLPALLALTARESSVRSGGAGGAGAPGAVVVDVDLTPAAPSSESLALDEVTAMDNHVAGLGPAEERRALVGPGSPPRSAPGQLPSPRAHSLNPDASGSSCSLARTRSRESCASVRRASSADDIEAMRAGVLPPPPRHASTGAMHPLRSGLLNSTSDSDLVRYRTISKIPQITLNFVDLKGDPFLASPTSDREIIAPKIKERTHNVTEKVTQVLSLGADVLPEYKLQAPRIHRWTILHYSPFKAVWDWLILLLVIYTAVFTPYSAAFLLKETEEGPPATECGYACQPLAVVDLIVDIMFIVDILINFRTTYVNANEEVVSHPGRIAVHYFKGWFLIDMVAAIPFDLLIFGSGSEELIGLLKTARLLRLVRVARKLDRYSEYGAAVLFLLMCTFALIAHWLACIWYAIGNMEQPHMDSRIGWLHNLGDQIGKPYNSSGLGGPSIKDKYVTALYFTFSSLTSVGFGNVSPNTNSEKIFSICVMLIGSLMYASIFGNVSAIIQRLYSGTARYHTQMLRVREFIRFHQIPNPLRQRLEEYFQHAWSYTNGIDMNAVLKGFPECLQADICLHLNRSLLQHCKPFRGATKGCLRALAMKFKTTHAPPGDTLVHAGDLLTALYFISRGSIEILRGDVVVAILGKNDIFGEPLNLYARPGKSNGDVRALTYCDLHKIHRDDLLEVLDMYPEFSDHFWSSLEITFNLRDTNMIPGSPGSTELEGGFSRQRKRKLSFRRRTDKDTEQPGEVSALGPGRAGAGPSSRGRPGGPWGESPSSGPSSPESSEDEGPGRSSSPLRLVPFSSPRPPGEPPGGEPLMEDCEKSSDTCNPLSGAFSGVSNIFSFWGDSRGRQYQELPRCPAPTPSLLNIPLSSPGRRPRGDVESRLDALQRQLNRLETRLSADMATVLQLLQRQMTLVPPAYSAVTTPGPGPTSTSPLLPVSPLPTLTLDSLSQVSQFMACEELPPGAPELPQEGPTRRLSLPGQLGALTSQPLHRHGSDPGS

Row | Structure (SMILES) | hERG current change (%, negative = inhibition) at 1uM [%]
1 | CC(C)Cc1csc(NC(=O)c2ccc(Cl)cc2)c1C(=O)O | 14.7
2 | CC1(c2cccc(Br)c2)NC(=O)N(CC(=O)N2CCN(C(=O)c3ccco3)CC2)C1=O (stereo not shown) | 12.6
3 | COc1ccc(N2CCN(CCC3Oc4cc([N+](=O)[O-])ccc4NC3=O)CC2)cc1 (stereo not shown) | 5.36
4 | O=C(CCCSc1ccc(Cl)cc1)Nc1cc(S(=O)(=O)N2CCOCC2)ccc1O | 15.1
5 | O=C(NC1CCCC1)c1sc(=S)n2c1[nH]c(=O)c1ccccc12 | 13.9
6 | COCCCNC(=O)C12CCC(C)(C(=O)C1)C2(C)C (stereo not shown) | 4.15
7 | COc1ccccc1N(CC(=O)NCCSC(C)(C)C)S(C)(=O)=O | 8.11
8 | O=C1NN(c2ccc(Cl)c(Cl)c2)C(=O)/C1=C/c1ccc(-c2ccccc2C(=O)O)o1 | 13
9 | O=C(Nc1nccs1)C1CC(=O)N(c2ccccc2Cl)C1 (stereo not shown) | 12.7
10 | CC(=O)Cc1ccccc1OCC(=O)O | 18.9
11 | CCOc1ccccc1-c1cc(C(=O)N2CCOCC2)c2ccccc2n1 | 3.29
12 | NC(=O)c1c(NC(=O)c2ccccc2C(=O)O)sc2c1CCCC2 | 9.08
13 | Cn1ccc(C(=O)Nc2ccc(Br)cc2Br)n1 | -4.41
14 | CCOc1ccc(NC(=O)CN(C)C(=O)c2ccccc2Cc2ccccc2)cc1OCC | 3.9
15 | Cc1nnc(SCC(=O)Nc2ccc(C(N)=O)cc2)n1-c1ccccc1 | 19.2
16 | CCN=c1scc(-c2cccs2)n1/N=C/c1cc(OC)ccc1O | 12.9
17 | O=C(NNc1cc(N2CCCC2)nc(N2CCCC2)n1)c1ccc([N+](=O)[O-])cc1 | -0.717
18 | O=C(N=c1ccn(-c2nc3ccccc3nc2NS(=O)(=O)c2ccc(Cl)cc2)cc1)c1cccs1 | 17.5
19 | CCN(CC(=O)Nc1ccccc1OC)C(=O)COc1ccc2ccccc2c1 | 11.3
20 | COCCN(C(=O)COC(=O)/C=C/c1ccc(C)o1)c1c(N)n(Cc2ccccc2)c(=O)[nH]c1=O | 8.42
21 | O=C1N(Cc2ccc3c(c2)OCO3)c2ccccc2C1(O)c1c[nH]c2ccccc12 (stereo not shown) | 14.7
22 | Cc1onc(-c2ccccc2Cl)c1C(=O)NCc1ccccc1F | 11.3

Row | Structure (SMILES) | hERG current change (%, negative = inhibition) at 1uM [%]
23 | CCOC(=O)N1CCC(N2Cc3cccc(C(=O)N4CCN(c5cccc(Cl)c5)CC4)c3C2=O)CC1 | -16.8
24 | O=C(O)c1cccc(N2C(=O)CSC2c2c(F)cccc2Cl)c1 (stereo not shown) | 10.3
25 | CC1(C)c2[nH]c3ccccc3c2C[C@H]2C(=O)N(Cc3ccccc3)C(=O)N21 | 4.95
26 | Cc1noc(C)c1CSc1nnc2ccc3ccccc3n12 | -8.33
27 | O=c1cc(CN2CCOCC2)nc(C2CC2)[nH]1 | 7.1
28 | CC(=O)C1=C(O)C(=O)N(c2nccs2)C1c1ccccc1F (stereo not shown) | 16.3
29 | COC(=O)c1ccc(C(=O)NC2CCCc3c2cnn3-c2ccc(C)c(C)c2)cc1 (stereo not shown) | 12.4
30 | Cc1ccc(S(=O)(=O)CC(=O)N2CCN(c3ccc(F)cc3)CC2)cc1 | -13.5
31 | COc1ccc(CN2CCN(C(=O)CC(C)C)CC2)c(OC)c1OC | 19.3
32 | Nc1cc(C(=O)O)c(Oc2ccc(Cl)cc2Cl)cc1C(=O)O | 4.01
33 | CN(C)S(=O)(=O)c1ccc(C(=O)OCC(=O)c2csc(N3CCCCC3)n2)cc1 | 8.35
34 | O=C(COC(=O)CSc1ccc(Cl)cc1)Nc1ccccc1 | 7.99
35 | COc1ccc(NC(=O)COC(=O)c2ccc(OCc3ccc(Cl)cc3Cl)c(OC)c2)c(OC)c1 | 9.48
36 | CSc1nc2sc3c(c2c(=O)n1C)CCC(C)C3 (stereo not shown) | 12.1
37 | COc1ccc(C2CC(c3ccccc3)=NN2C(=O)COC(=O)c2ccc(Cl)nc2)cc1 (stereo not shown) | 11
38 | Cc1ccccc1C(=O)c1ccc2c(c1)n(C)c(=O)n2C | 5.59
39 | CN(C(=O)CCNC(=O)N1CC(=O)Nc2ccccc21)C1CCCCC1 | 25.2
40 | Cc1cc(C)cc(NC(=O)C2CCN(S(=O)(=O)c3c(C)n[nH]c3C)CC2)c1 | 1.58
41 | COc1ccccc1CNc1ccc([N+](=O)[O-])cc1C | 11.3
42 | CS(=O)(=O)N1CCN(c2ccccc2NC(=S)NC(=O)c2ccccc2[N+](=O)[O-])CC1 | 15.6
43 | COc1ccccc1CCc1nnc(CCC(=O)N(C)Cc2cccc3cnccc23)o1 | -53.3
44 | O=C(COc1ccccc1Cl)N(Cc1cccs1)C1CCS(=O)(=O)C1 (stereo not shown) | 9.15

Row | Structure (SMILES) | hERG current change (%, negative = inhibition) at 1uM [%]
45 | Cc1c(NC(=O)c2ccc(-c3ccccc3)cc2)cccc1C(=O)O | -0.165
46 | O=C(c1ccccc1)c1ccccc1N1C(=O)C=CC1=O | 10.8
47 | COc1cc(/C=N/Nc2nc(C)cc(=O)[nH]2)ccc1O | 13.9
48 | O=C(Nc1cccc([N+](=O)[O-])c1)N1CCCCCC1 | 20.5
49 | O=c1c2ccccc2nnn1CSc1nnc(Nc2ccccc2)s1 | 0.932
50 | CCOCC(=O)Nc1c(C(=O)Nc2ccccc2OC)oc2ccccc12 | 2.06
51 | CCC(C)[C@H](NC(=O)N1CC(=O)Nc2ccccc21)C(=O)Nc1ccccc1C (stereo partly shown) | 11.6
52 | O=C1c2cccnc2C(=O)N1Cc1ccc(S(=O)(=O)N2CCOc3ccccc32)cc1 | 16.4
53 | C/C(=N/NC(=O)c1cccnc1)C1=C(O)CC(C)(C)CC1=O | 18.4
54 | CN(CCN1CCOCC1)C(=O)CC1C(=O)NCCN1Cc1ccccc1F (stereo not shown) | 15.1
55 | O=C(c1cnn2c(C(F)F)cc(-c3ccccc3)nc12)N1CCN2CCCC2C1 (stereo not shown) | -10.6
56 | COc1ccc(-c2noc(CCCC(=O)NC3CCCCC3)n2)cc1 | 3.07
57 | CC1C(=O)N2CCCc3cc(NC(=O)C4CCCCC4)cc1c32 (stereo not shown) | 10.7
58 | O=C(c1cc(COc2ccccc2)on1)N1CCCC(CN2CCOCC2)C1 (stereo not shown) | 4.91
59 | COc1ccc(-c2nnc(CSc3nnc(-c4ccncc4)n3C3CCCCC3)o2)cc1OC | -17.9
60 | CC(=O)c1ccc(NC(=S)NCCCn2ccnc2)cc1 | 10.9
61 | Cc1cccc(C(=O)NCC(=O)NC(C)CCc2ccccc2)c1 (stereo not shown) | 12.4
62 | CC(OC(=O)Cc1ccc(F)cc1)C(=O)NCc1ccc2c(c1)OCO2 (stereo not shown) | -1.5
63 | Cc1ccccc1OCC(=O)Nc1nc2ccccc2[nH]1 | 6.74
64 | CN(Cc1ccc(F)cc1)Cc1nc(-c2cnccn2)no1 | 17.9
65 | COc1cccc(CNc2nc(SC)ncc2CO)c1 | 18.8
66 | CCOc1ccc(N2C(=O)CS/C2=N/NC(=O)COc2ccc3ccccc3c2)cc1 | 11.8

Row | Structure (SMILES) | hERG current change (%, negative = inhibition) at 1uM [%]
67 | O=C(OCC(=O)N1CCCC1)c1ccc(OC(F)(F)F)cc1 | 0.394
68 | O=C(Nc1ccc(F)cc1)NC1CCN(Cc2ccccc2)CC1 | -6.06
69 | COc1ccc([N+](=O)[O-])cc1CSc1nnc(NC(C)=O)s1 | 8.56
70 | CCOc1cc(C(=O)Nc2ccccc2N2CCOCC2)ccc1OCC(=O)N1CCCCC1 | 7.14
71 | Cc1nnc2ccc(N3CCOCC3)nn12 | 5.81
72 | Cc1ccc(OCC(=O)Oc2ccccc2[N+](=O)[O-])cc1 | 7.64
73 | Fc1ccc(-n2c(-c3ccc4ccccc4n3)n[nH]c2=S)cc1 | 17.1
74 | Cc1cccc(C)c1NC(=O)Cn1c(CN2CCCCC2)nc2ccccc2c1=O | 9.77
75 | COc1cc(CC2COC(c3ccc(O)c(OC)c3)C2COC(C)=O)ccc1O (stereo not shown) | -0.988
76 | CCN(CC)C(=O)CSc1ncccc1-c1nc2ccccc2[nH]1 | 12.9
77 | CN1CCN(C(CNC(=O)C(=O)Nc2ccc3c(c2)OCCO3)c2ccc(F)cc2)CC1 (stereo not shown) | -3.51
78 | O=C(OCC(=O)N1CCc2ccccc21)c1cccnc1 | 1.03
79 | Cn1c(NNC(=O)CCC2CCCCC2)cc(=O)n(C)c1=O | 13.3
80 | CN(Cc1ccccc1)C(=O)c1[nH]cnc1C(=O)NCC(=O)OCc1ccccc1 | 0.241
81 | Cc1ccc(-c2nc(S(=O)(=O)c3ccc(C)cc3)c(SCC(N)=O)o2)cc1 | 7.75
82 | Cc1ccccc1N1CCN(CC(=O)NCc2ccc(Cl)cc2)CC1 | 17.9
83 | CCC(=O)NC(=S)Nc1c(C)cc(Br)cc1C | -0.392
84 | COc1ccccc1CNCc1cc(=O)oc2c(C)c(C)ccc12 | 3.32
85 | O=S(=O)(c1ccc(-c2ccon2)s1)N1CCN(c2ccccn2)CC1 | 9.78
86 | COCCNC(=O)c1ccc(N(C)S(=O)(=O)c2ccc(OC)c(OC)c2)cc1 | 7.17
87 | O=c1oc2cc(OCc3ccc([N+](=O)[O-])cc3)ccc2c2c1CCCC2 | 1.05
88 | CCCCN1CC(=O)N2Cc3[nH]c4ccccc4c3C[C@H]2C1=O | 15.5
